{"source": "paper PMC10201506", "about": "(Signal Transduction and Targeted Therapy, 2023)", "key": {"DPP-4": {"biological_target": "DPP-4 (Homo sapiens, UniProt P27487)", "sequence (P27487 whole entry)": "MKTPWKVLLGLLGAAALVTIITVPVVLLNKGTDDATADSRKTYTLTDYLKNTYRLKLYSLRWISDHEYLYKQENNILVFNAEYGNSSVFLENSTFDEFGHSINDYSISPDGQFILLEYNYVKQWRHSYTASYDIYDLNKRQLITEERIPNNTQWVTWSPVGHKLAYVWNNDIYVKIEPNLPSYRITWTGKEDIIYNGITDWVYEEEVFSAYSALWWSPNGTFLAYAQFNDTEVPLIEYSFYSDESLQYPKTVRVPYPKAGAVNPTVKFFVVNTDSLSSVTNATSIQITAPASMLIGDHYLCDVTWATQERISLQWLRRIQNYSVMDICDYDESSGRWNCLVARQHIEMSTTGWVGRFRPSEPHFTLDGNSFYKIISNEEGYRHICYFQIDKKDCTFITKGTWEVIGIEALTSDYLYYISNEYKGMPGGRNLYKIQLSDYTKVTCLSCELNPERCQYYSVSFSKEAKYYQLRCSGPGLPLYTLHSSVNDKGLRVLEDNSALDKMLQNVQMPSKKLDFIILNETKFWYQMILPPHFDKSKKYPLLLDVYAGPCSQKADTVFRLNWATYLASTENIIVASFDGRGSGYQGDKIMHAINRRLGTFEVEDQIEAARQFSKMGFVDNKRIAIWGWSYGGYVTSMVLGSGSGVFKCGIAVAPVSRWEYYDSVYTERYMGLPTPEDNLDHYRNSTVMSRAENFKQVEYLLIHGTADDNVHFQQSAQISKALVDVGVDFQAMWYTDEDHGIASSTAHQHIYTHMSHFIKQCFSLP", "assay": "biochemical", "type": "biochemical"}, "Calpain I": {"biological_target": "T1, Calpain I (Homo sapiens, UniProt P07384)", "T1 construct": "purchased abcam ab91019", "T1 sequence (P07384 1-714)": "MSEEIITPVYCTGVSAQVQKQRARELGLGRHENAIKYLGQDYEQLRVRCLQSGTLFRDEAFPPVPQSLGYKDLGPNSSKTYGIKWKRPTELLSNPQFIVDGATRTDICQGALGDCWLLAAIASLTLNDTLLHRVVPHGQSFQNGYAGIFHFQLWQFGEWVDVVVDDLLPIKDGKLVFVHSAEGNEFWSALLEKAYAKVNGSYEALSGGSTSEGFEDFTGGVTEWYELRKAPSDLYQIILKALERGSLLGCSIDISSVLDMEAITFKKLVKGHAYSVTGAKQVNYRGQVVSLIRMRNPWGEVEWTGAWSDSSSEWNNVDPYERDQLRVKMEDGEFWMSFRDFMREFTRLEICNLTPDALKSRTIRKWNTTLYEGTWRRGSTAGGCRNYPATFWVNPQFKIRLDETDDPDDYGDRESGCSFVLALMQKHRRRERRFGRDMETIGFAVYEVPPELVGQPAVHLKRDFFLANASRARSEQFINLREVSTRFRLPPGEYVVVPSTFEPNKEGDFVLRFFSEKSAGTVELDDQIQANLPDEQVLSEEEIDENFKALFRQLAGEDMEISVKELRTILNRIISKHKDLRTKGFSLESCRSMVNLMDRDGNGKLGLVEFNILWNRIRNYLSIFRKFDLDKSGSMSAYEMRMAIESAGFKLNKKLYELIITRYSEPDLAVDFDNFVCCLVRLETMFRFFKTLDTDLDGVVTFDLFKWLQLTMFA", "T1 sequence (P04632 1-268 partner)": "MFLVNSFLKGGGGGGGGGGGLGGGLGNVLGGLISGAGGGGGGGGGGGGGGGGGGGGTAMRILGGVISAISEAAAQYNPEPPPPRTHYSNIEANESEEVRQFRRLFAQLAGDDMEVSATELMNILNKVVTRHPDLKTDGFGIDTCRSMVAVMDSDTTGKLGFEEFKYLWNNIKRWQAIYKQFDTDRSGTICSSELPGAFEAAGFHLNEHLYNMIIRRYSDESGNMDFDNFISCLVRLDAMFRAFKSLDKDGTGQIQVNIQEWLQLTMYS", "assay": "Calpain I enzymatic assay", "type": "biochemical", "details": "read-out: IC50 Calpain 1/cysteine"}, "trypsin": {"biological_target": "trypsin (Homo sapiens, UniProt P07477)", "assay": "biochemical"}}, "note": "Read-outs that look alike come from different tables or passages of the source."}
{"smiles": "CC(C)(C)[C@H](NC(=O)C(F)(F)F)C(=O)N1C[C@H]2[C@@H]([C@H]1C(=O)N[C@H](C#N)C[C@@H]1CCNC1=O)C2(C)C", "note": "[PF-07321332]", "values": [{"measurement": "IC50", "setting": "DPP-4; read-out: IC50 DPP-4/cysteine", "value": "> 100", "unit": "µM"}]}
{"smiles": "CC(C)C[C@H](NC(=O)OCc1ccccc1)C(=O)N[C@@H](CC1CCNC1=O)C(O)S(=O)(=O)O", "note": "(some centres unmarked) [GC-376]", "values": [{"measurement": "IC50", "setting": "Calpain I", "value": 0.02, "unit": "µM"}, {"measurement": "IC50", "setting": "DPP-4; read-out: IC50 DPP-4/cysteine", "value": "> 100", "unit": "µM"}]}
{"smiles": "O=C(c1cc(=O)[nH]c2ccccc12)N1CCN(c2ccc(Cl)c(Cl)c2)CC1CN1CCOCC1", "note": "(centres unmarked) [JZD-07, 4-(4-(3,4-Dichlorophenyl)-2-(morpholinomethyl)piperazine-1-carbonyl)quinolin-2(1H)-one]", "values": [{"measurement": "IC50", "setting": "DPP-4", "value": "> 100", "unit": "µM"}, {"measurement": "IC50", "setting": "trypsin", "value": "> 100", "unit": "µM"}]}
